# Measured values as given in PubChem BioAssay AID588855 (National Center for Advancing Translational Sciences (NCATS), 2011).
# Among all 410,000 compounds or so, about 5,000 (1.2%) were called active. The inconclusive results got no clear call from the source; some entries with a clear call stand among them for comparison. Calls come from the whole dose curve; as a rule, active = well fitted inhibition curve with a large enough effect; inconclusive = small, poorly fitted or top-dose-only effect; inactive = no such curve, though single readings can be large or run the other way. Potencies of inconclusive entries are doubtful fits and often do not repeat.
# Assay: qHTS for Inhibitors of TGF-b; note: nearly all actives have a fitted effect of over 65% in size
# Conditions: HepG2 CAGA-GFP TGF-b/SMAD3 reporter, GFP fluorescence, 18 h, TGF-beta stimulated, 500 pg/mL final; series mostly up to 46.1 µM; activity, negative = inhibition: at the top concentration
# How it was run: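 First, reporter cells (HEPG2 CAGA-GFP) rested 2 h at 37 degrees C. Next, compounds were pinned in and TGF-beta added to 500 pg/mL final. After 18 h, GFP was imaged per cell and summed per well.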
# % is set by controls: 0 for no effect and ±100 for the full control effect; potency is the fitted concentration of half-maximal effect; tags give direction and shape of the fitted curve.
Structure (SMILES),"activity, negative = inhibition",Potency
Cc1cccc(N2CCN(C(=O)c3ccc(N4CCCC4=O)cc3)CC2C)c1 (stereo not given),inactive: 1.9%,–
NS(=O)(=O)c1ccc(CNC(=O)c2cc(-c3cccnc3)nc3ccc(Br)cc23)cc1,inactive: -20.2%,–
O=C(Nc1ccc(Br)cc1)Nc1nc2c(s1)CCCCCC2,inactive: 17.5%,–
CCOc1ccc2oc(C(=O)NC3CCN(Cc4ccccc4)CC3)c(C)c2c1,–,"inconclusive: 35.5 µM [inhibitor, single point]"
COc1cc(C)cc2c1OC(c1ccccc1)CC2=O (stereo not given),–,"inconclusive: 3.98 µM [inhibitor, partial curve, poor fit]"
CCCN1C(=O)/C(=C2\SC(N3CCCCC3)=NC2=O)c2ccccc21,inactive: -2.99%,–
CC(C)COP(=O)(c1ccc(N(C)C)cc1)C(O)c1ccc(N(C)C)cc1 (stereo not given),–,"inconclusive: 35.5 µM [inhibitor, single point]"
Cc1ccc(S(=O)(=O)CCC(=O)OCC(=O)c2c(N)n(CC(C)C)c(=O)n(C)c2=O)cc1,–,"inconclusive: 35.5 µM [inhibitor, single point]"
Cc1ccc(NN=Nc2nc3c([nH]2)c(=O)n(C)c(=O)n3C)cc1,–,"inconclusive: 3.16 µM [inhibitor, single point]"
CC(C)(C)n1ncc2c(=O)n(Cc3ccc(Cl)c(OC(F)(F)F)c3)cnc21,–,"inconclusive: 14.1 µM [inhibitor, single point]"
CC(C)c1ccc(NC(=O)[C@H](Cc2c[nH]c3ccccc23)NC(=O)[C@@H]2Cc3ccccc3CN2)cc1,–,"inconclusive: 31.6 µM [inhibitor, single point]"
O=C(Nc1ccccn1)C1CCN(C(=O)c2ccc(Cl)cc2)CC1,inactive: -2.92%,–
Cc1cccc(Nc2nc(-c3ccc(O)c(O)c3)cs2)n1,–,"inconclusive: 35.5 µM [inhibitor, single point]"
Cc1ccc(CSc2nc3ccncc3n2CC(=O)Nc2cc(C)cc(C)c2)cc1,–,"inconclusive: 17.8 µM [inhibitor, single point]"
CC(=O)c1cccc(NC(=O)Nc2cccs2)c1,inactive: -5.54%,–
CCOc1ccc(OC(=O)c2sc3ncn(Cc4cccc(F)c4)c(=O)c3c2C)cc1,inactive: 2.77%,–
CCN(CC(=O)Nc1c(F)cccc1F)C(=O)CSc1nc(C)cc(C)n1,inactive: 1.65%,–
O=C1CCC2S/C(=C/Nc3ccc(C(F)(F)F)cc3)C(=O)N12 (stereo not given),inactive: -3.87%,–
OCC1OC(n2cnc3c(SCc4ccccc4)ncnc32)C(O)C1O (stereo not given),–,"inconclusive: 20 µM [inhibitor, single point]"
CSc1ccc(CCNS(=O)(=O)c2cc(-c3cc(C)no3)ccc2C)cc1,–,"inconclusive: 20 µM [inhibitor, partial curve, poor fit]"
